Measured values as given in PubChem BioAssay (Tox21).
“And” between values parts separate entries of the source, which are not always exact repeats. Equal entries are not always repeated. Inconclusive means that the source gave no clear call. Such entries were picked first, then a sample of the others. For some of these results: Potencies of inconclusive entries are doubtful fits and often do not repeat. More than one record can exist for a structure, and the calls need not agree. The source made the active and inactive calls. Unless noted, the call rests on the fitted dose curve; in most records, active means well fitted curve in the direction sought with a large enough effect in the repeat runs; inconclusive means weak or mixed curves; inactive means no such curve, though single readings can be large; an effect the other way counts as inactive or inconclusive.

Columns and labels:
[1] = qHTS assay to identify small molecule antagonists of the estrogen receptor alpha (ER-alpha) signaling pathway using the BG1 cell line in the presence of 0.1 nM 17-beta-estradiol - cell viability counter screen (AID 1259241); further: potency means the concentration at half of the fitted maximal effect; nearly all actives have a fitted effect of over 40% in size
How it was run: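 Live-cell protease activity (CellTiter-Fluor fluorescence, 30 min) was read in the same wells after VM7Luc4E2 cells had been exposed to compounds with 0.1 nM 17beta-estradiol for 22 hr at 37C.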

[2] = qHTS assay to identify small molecule antagonists of the androgen receptor (AR) signaling pathway using the MDA cell line in the presence of 0.5 nM R1881 - cell viability counter screen (AID 1259242); further: potency means the concentration at half of the fitted maximal effect; nearly all actives have a fitted effect of over 45% in size
How it was run: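 R1881 at 0.5 nM final stimulated MDA-kb2 cells during 16 hr compound treatment at 37C. Cytotoxicity read: CellTiter-Fluor fluorescence after 30 min.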

[3] = qHTS assay to identify small molecule antagonists of the sonic hedgehog signaling (Shh) pathway - cell viability counter screen (AID 1259367); further: potency means the concentration at half of the fitted maximal effect; nearly all actives have a fitted effect of over 55% in size
How it was run: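 Seed 3T3 Gli1-Luc cells at 2,000 per well; incubate 4 hr; add compound in DMSO, then conditioned medium; incubate at 37C with 5% CO2; add CellTiter-Fluor after 23 hr; read fluorescence 1 hr later.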

[4] = qHTS assay to identify small molecule agonists of the androgen receptor (AR) signaling pathway in the presence of an antagonist - cell viability counter screen (AID 1259379); further: potency means the concentration at half of the fitted maximal effect; nearly all actives have a fitted effect of over 25% in size
How it was run: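 A CellTiter-Fluor read-out measured viability of MDA-kb2 reporter cells (MMTV promoter with AR and GR response elements). Treatment: nilutamide 3.0uM final with compounds at 15 concentrations, 16 hr, 37C, 0% CO2.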

[5] = target: Estrogen receptor (Homo sapiens) (UniProt P03372); assay: qHTS assay to identify small molecule antagonists of the estrogen receptor alpha (ER-alpha) signaling pathway using the BG1 cell line in the presence of 0.1 nM 17-beta-estradiol (AID 1259244); further: potency means the concentration at half of the fitted maximal effect; nearly all actives have a fitted effect of over 50% in size
How it was run: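 VM7Luc4E2; 4xERE-luciferase; 0.1 nM E2 final; 22 h co-incubation, 37C; ONE-Glo luminescence after 30 min at room temperature.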

[6] = qHTS assay to identify small molecule HDAC inhibitors (AID 1259364); further: potency means the concentration at half of the fitted maximal effect;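 further: wild-type HCT-116 cells with endogenous class I/II HDAC activity; nearly all actives have a fitted effect of over 45% in size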
How it was run: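 Relative class I and II HDAC activity is taken from the luminogenic signal in HCT-116 cells, with compound exposure 2 hr and reagent development 30 min at room temperature.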

[7] = qHTS assay to identify small molecule agonists of the sonic hedgehog signaling (Shh) pathway - cell viability counter screen (AID 1259366); further: potency means the concentration at half of the fitted maximal effect; nearly all actives have a fitted effect of over 50% in size
How it was run: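 CellTiter-Fluor fluorescence read-out, 1 hr at 37C, added after 23hr compound exposure. Cells: 3T3 Gli1-Luc, an NIH/3T3 clone with stably integrated Gli1-Luc reporter, plated 4hr before compound.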

[8] = target: Estrogen receptor beta (Homo sapiens) (UniProt Q92731); assay: qHTS assay to identify small molecule agonists of the estrogen receptor beta (ER-beta) signaling pathway (AID 1259377; active means well fitted activation curve with a large enough effect in the signal ratio in the repeat runs, not every such curve was filed as active; inconclusive means weak or mixed curves, or effect the other way; the % refers to the signal ratio; further: potency means the concentration at half of the fitted maximal effect; on activation: on the % scale 0 is the no-effect control and ±100 the full control effect); conditions: ER-beta-UAS-bla HEK293T, beta-lactamase FRET ratio, 16 h; activation: at 92.4 µM (top of the series) unless noted
How it was run: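 Beta-lactamase reporter readout: fluorescence of LiveBLAzer B/G FRET substrate after 2 h at room temperature, following 16 h compound treatment of ER-beta-UAS-bla HEK293T cells at 37C in 2% charcoal-stripped FBS medium.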

[9] = target: Estrogen receptor beta (Homo sapiens) (UniProt Q92731); assay: qHTS assay to identify small molecule antagonists of the estrogen receptor beta (ER-beta) signaling pathway (AID 1259378; active means well fitted inhibition curve with a large enough effect in the signal ratio in the repeat runs, not every such curve was filed as active; inconclusive means weak or mixed curves, or effect the other way; inactive means no such curve, though single readings can be large or run the other way; the % refers to the signal ratio; further: potency means the concentration at half of the fitted maximal effect); conditions: ER-beta-UAS-bla HEK293T, beta-lactamase FRET ratio, 16 h; activity, negative = inhibition: at 92.4 µM (top of the series) unless noted
How it was run: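 ER-beta-UAS-bla HEK293T cells in 2% charcoal-stripped FBS medium treated with compound plus 1nM final 17-beta-estradiol for 16 hr at 37C. Beta-lactamase reporter read by FRET substrate fluorescence after 2 hours at room temperature.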

[10] = qHTS assay to identify small molecule antagonists of the sonic hedgehog signaling (Shh) pathway (AID 1259369; calls by dose curve; further: nearly all actives have a fitted effect of over 45% in size; further: potency means the concentration at half of the fitted maximal effect)
How it was run: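 Conditioned medium drives Shh signalling in 3T3Gli1-Luc cells; compounds in DMSO co-applied, 24hr at 37 C, then luciferase luminescence.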

[11] = target: Androgen receptor (Homo sapiens) (UniProt P10275); assay: qHTS assay to identify small molecule antagonists of the androgen receptor (AR) signaling pathway using the MDA cell line in the presence of 0.5 nM R1881 (AID 1259243); further: potency means the concentration at half of the fitted maximal effect; nearly all actives have a fitted effect of over 50% in size
How it was run: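 We exposed MDA-kb2 cells to compounds under 0.5 nM R1881 stimulation for 16 hr at 37C and quantified MMTV-driven luciferase by luminescence.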

[12] = qHTS assay to identify small molecule agonists of the estrogen receptor beta (ER-beta) signaling pathway - cell viability counter screen (AID 1259380); further: potency means the concentration at half of the fitted maximal effect; nearly all actives have a fitted effect of over 30% in size
How it was run: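 Cells used were ER-beta-UAS-bla HEK293T in medium with 2% charcoal-stripped FBS. They were treated for 16 hr at 37C. Viability came from CellTiter-Glo luminescence.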

[13] = qHTS assay to identify small molecule HDAC inhibitors - cell viability counter screen (AID 1259365); further: potency means the concentration at half of the fitted maximal effect; nearly all actives have a fitted effect of over 50% in size
How it was run: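 HCT-116 (wild type), 1,500 cells/well, overnight 37C/5% CO2; compound in DMSO 2hr; CellTiter-Glo 30min RT; luminescence read.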

[14] = qHTS assay to identify small molecule antagonists of the estrogen receptor beta (ER-beta) signaling pathway - cell viability counter screen (AID 1259382); further: potency means the concentration at half of the fitted maximal effect; nearly all actives have a fitted effect of over 55% in size
How it was run: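 Agonist-stimulated (1nM E2) ER-beta-UAS-bla HEK293T cells are incubated with library compounds for 16 hr at 37C. Cell viability is then assessed in the reporter-assay wells by adding CellTiter-Glo and reading luminescence after 30 min.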

[15] = qHTS assay to identify small molecule agonists or antagonists of the thyroid stimulating hormone receptor (TSHR) signaling pathway - wild type cell line counter screen (AID 1259384; calls by dose curve; further: on the % scale 0 is the no-effect control and ±100 the full control effect); conditions: HEK293 wild type, cAMP HTRF counter-screen; cAMP activity change: at 92.4 µM (top of the series), stronger effect = higher value unless noted
How it was run: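 Wild-type Hek293 cells, 800/well, 18 h at 37C, then compound with Ro20-1724 for 30 min RT. cAMP by HTRF (cAMP-d2/anti-cAMP cryptate), 1 h RT, fluorescence read. 15 concentrations, triplicates.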
Tags describe the fitted curve by direction and shape or compound fluorescence and quenching.

Sequence of UniProt Q92731 (Q92731 whole entry, looked up): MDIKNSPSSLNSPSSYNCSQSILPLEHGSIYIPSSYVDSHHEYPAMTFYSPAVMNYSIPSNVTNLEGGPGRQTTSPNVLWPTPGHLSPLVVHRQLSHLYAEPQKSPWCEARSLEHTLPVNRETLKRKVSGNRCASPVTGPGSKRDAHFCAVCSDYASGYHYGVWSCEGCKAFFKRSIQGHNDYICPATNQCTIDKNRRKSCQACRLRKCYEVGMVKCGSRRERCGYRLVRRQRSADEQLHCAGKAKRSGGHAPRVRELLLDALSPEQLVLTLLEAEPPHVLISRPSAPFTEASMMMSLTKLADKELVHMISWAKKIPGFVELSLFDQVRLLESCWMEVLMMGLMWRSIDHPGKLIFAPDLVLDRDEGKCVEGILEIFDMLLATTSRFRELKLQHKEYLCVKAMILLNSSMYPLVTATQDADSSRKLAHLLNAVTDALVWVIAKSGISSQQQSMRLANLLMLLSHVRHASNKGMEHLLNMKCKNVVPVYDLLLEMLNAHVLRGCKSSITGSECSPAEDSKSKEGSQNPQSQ
Sequence of UniProt P03372 (P03372 whole entry, looked up): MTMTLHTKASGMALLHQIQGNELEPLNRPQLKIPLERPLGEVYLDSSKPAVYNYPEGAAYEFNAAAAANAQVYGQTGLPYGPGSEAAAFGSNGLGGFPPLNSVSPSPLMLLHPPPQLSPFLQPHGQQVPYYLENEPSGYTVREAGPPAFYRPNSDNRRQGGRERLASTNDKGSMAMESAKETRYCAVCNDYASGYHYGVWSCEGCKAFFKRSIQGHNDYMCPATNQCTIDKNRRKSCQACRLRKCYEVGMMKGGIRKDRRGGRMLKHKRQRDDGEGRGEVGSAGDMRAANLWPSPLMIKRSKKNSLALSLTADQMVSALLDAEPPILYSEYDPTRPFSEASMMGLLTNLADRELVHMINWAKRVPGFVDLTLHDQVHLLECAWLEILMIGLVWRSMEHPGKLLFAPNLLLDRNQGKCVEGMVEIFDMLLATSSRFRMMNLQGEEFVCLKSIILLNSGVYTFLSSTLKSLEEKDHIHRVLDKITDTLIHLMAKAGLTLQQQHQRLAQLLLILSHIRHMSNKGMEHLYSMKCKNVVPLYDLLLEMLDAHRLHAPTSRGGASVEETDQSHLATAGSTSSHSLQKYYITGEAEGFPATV
Sequence of UniProt P10275 (P10275 whole entry, looked up): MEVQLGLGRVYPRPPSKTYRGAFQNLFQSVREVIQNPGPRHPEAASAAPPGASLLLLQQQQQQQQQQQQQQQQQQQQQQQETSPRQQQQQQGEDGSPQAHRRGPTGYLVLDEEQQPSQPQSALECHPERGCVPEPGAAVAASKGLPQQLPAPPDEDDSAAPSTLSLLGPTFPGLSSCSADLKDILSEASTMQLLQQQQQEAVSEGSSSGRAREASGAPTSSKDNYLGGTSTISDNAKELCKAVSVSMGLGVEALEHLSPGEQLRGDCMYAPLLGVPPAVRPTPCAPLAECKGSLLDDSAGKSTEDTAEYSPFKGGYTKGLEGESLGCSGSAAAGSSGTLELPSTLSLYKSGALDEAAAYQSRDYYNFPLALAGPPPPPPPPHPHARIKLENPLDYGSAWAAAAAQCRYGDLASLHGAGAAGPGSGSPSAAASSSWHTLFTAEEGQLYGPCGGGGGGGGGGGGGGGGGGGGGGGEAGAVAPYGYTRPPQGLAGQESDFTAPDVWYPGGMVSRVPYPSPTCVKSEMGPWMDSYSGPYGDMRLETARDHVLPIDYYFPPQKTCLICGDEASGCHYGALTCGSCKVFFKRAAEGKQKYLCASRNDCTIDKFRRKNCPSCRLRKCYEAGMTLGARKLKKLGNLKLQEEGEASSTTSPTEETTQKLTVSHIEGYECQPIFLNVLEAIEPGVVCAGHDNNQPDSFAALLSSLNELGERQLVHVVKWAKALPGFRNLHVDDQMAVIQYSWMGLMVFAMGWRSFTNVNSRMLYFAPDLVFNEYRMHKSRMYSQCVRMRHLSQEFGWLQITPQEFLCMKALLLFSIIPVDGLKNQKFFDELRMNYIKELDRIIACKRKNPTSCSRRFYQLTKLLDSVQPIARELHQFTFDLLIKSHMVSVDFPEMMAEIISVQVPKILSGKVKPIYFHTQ

## CCCCCCCCCCCC[N+](C)(C)Cc1ccccc1
[1]
  Potency: inconclusive: 83.6 µM [cytotoxic, single point] and inconclusive: 11.9 µM [cytotoxic, single point]
[2]
  Potency: active: 47.6 µM and active: 37.4 µM and active: 13.3 µM
[3]
  Potency: inconclusive: 60 µM [cytotoxic, single point] and inconclusive: 33.5 µM [cytotoxic, single point]
[4]
  Potency: active: 23.9 µM and active: 33.3 µM and active: 26.6 µM

## O=[N+]([O-])c1ccc(O)cc1
[1]
  Potency: active: 56.6 µM and inconclusive: 54.5 µM [cytotoxic, partial curve, poor fit] and inconclusive: 61.1 µM [cytotoxic, single point]
[2]
  Potency: inconclusive: 31.8 µM [cytotoxic, partial curve] and inconclusive: 19.3 µM [cytotoxic, full curve] and inconclusive: 48.6 µM [cytotoxic, partial curve]
[5]
  Potency: inconclusive: 40.1 µM [inhibitor, partial curve, poor fit]
[6]
  Potency: inconclusive: 31.8 µM [inhibitor, partial curve] and inactive
[7]
  Potency: active: 50.4 µM and active: 54.5 µM
[3]
  Potency: active: 56.6 µM and inconclusive: 54.5 µM [cytotoxic, partial curve]
[4]
  Potency: active: 31.8 µM and active: 48.6 µM and active: 30.6 µM

## CC[C@@]1(O)C(=O)OCc2c1cc1n(c2=O)Cc2cc3c(CN(C)C)c(O)ccc3nc2-1
[1]
  Potency: inconclusive: 23.7 µM [rising, partial curve]
[2]
  Potency: inconclusive: 23.7 µM [rising, partial curve]
[7]
  Potency: inconclusive: 3.76 µM
[3]
  Potency: inconclusive: 4.22 µM
[8]
  Potency: inconclusive: 26.6 µM [rising, partial curve]
[9]
  Potency: inconclusive: 26.6 µM [rising, partial curve]
[4]
  Potency: inconclusive: 6.68 µM [rising, partial curve]

## CNc1ccc([N+](=O)[O-])cc1
[1]
  Potency: active: 43.4 µM
[2]
  Potency: inconclusive: 48.7 µM [cytotoxic, partial curve]
[7]
  Potency: active: 19.4 µM
[10]
  Potency: inactive
[4]
  Potency: active: 48.7 µM

## CCCCCCCCCCCCOC(=O)c1ccc(O)cc1
[1]
  Potency: inconclusive: 77.5 µM [cytotoxic, partial curve, poor fit]
[11]
  Potency: inconclusive: 69.1 µM [inhibitor]
[5]
  Potency: inconclusive: 69.1 µM [inhibitor, single point]

## COc1cc(C(=O)NC2CCN(C)CC2)ccc1Nc1ncc2c(n1)N(C1CCCC1)CC(F)(F)C(=O)N2C
[1]
  Potency: inconclusive: 4.99 µM [cytotoxic, full curve]
[2]
  Potency: inconclusive: 56 µM [cytotoxic, partial curve, poor fit]
[3]
  Potency: active: 0.791 µM
[10]
  Potency: active: 112 nM
[8]
  Potency: inconclusive: 35.3 µM [rising, partial curve, poor fit]
[9]
  Potency: inconclusive: 14.1 µM [fluorescent, partial curve]
[4]
  Potency: inconclusive: 35.3 µM [cytotoxic, partial curve]
[12]
  Potency: active: 22.3 µM

## CCCCCCCCCCCCCC[N+](C)(C)C
[1]
  Potency: inconclusive: 68.5 µM [cytotoxic, single point]
[2]
  Potency: inconclusive: 21.7 µM [cytotoxic, partial curve] and inconclusive: 16.8 µM [cytotoxic]
[13]
  Potency: inconclusive: 68.5 µM [cytotoxic]
[3]
  Potency: inconclusive: 59.1 µM [cytotoxic] and inconclusive: 27.3 µM [cytotoxic, single point]
[4]
  Potency: active: 33.2 µM and active: 24.3 µM and active: 10.6 µM
[12]
  Potency: inconclusive: 3.35 µM [cytotoxic, full curve]

## N#CSc1ccc(N)c([N+](=O)[O-])c1
[1]
  Potency: inconclusive: 48.9 µM [cytotoxic, partial curve]
[2]
  Potency: inconclusive: 54.8 µM [cytotoxic, partial curve]
[5]
  Potency: inconclusive: 48.9 µM [inhibitor, partial curve]
[8]
  activation: inconclusive: -12.4%
[9]
  Potency: active: 19.4 µM
[4]
  Potency: active: 54.8 µM
[12]
  Potency: inconclusive: 13.8 µM [cytotoxic, full curve]
[14]
  Potency: inconclusive: 34.6 µM [cytotoxic, partial curve]

## CO[C@H]1C=CO[C@@]2(C)Oc3c(C)c(O)c4c(O)c(c(/C=N/N5CCN(C)CC5)c(O)c4c3C2=O)NC(=O)/C(C)=C\C=C[C@H](C)[C@H](O)[C@@H](C)[C@@H](O)[C@@H](C)[C@H](OC(C)=O)[C@@H]1C
[1]
  Potency: active: 27.4 µM and active: 19.6 µM and active: 13.3 µM
[2]
  Potency: inconclusive: 19.6 µM [cytotoxic, partial curve] and inconclusive: 23.7 µM [cytotoxic, partial curve]
[10]
  Potency: active: 27.4 µM and inactive
[15]
  cAMP activity change: inconclusive: -3.04%
